At least one peptide structure holds a part that was inferred or is arguable (an end, a ring closure or a residue). Starred links: 1 amine or outer side, 2 acyl side, 3 side chain; linkers in the order of their positions; H or OH if unused. Positions of bridges follow the written chain, without caps; N, C: chain ends. Residues, ends and D or L forms follow the SMILES beside them. No end group written: not given here. Phenylene(1,4-NHCOCH2)2 = O=C(C[*:1])Nc1ccc(NC(=O)C[*:2])cc1; X1 = O=C(C[*:1])O[C@@H]1C=C[C@H](OC(=O)C[*:2])C1; X4 = O=C(C[*:1])O[C@H]1CC[C@@H](OC(=O)C[*:2])CC1
Test: Measurement of LogK (log k IAM by HPLC on IAM.PC.DD2 column)
Format: physicochemical
Conditions: 50 mM ammonium acetate pH 7.4 / acetonitrile, 30° C.
Method: Measurement of LogK: LogK values were measured on a Agilent 1260 HPLC with UV detector (254,280 nm) using a IAM.PC.DD2 100×4.6 mm column (Regis Technologies 1-774011-300) with a 6.5 min gradient of 0-90% B with mobile phase A of 50 mM ammonium acetate pH 7.4, and mobile phase B of Acetonitrile. The temperature was 30° C., the flow rate 1.5 mL/min, and the injection volume 3-5 uL. Calibration mixture IAM was purchased from Bio-mimetic Chromatography Ltd and used to run calibration, calculate CHI IAM value, then calculate logk IAM using equation: log k IAM=0.046*CHI IAM+0.42.

Molecule | LogK
GPAKPEAPGEDASPEELYHYYWDLDDYLDRVA-NH2 (C-terminus assumed) [Compound 28] | 1.68
CC[C@H](C)[C@@H]1NC(=O)[C@@H](NC(=O)[C@H](CC(=O)O)NC(=O)[C@H](CCC(=O)O)NC(=O)[C@H](CC(=O)O)NC(=O)[C@H](C)NC(=O)[C@@H]2CCCN2C(=O)[C@H](CC(=O)O)NC(=O)[C@H](C)N)CSCC(=O)Nc2ccc(cc2)NC(=O)CSC[C@@H](C(=O)N[C@@H](CCC(N)=O)C(=O)N[C@@H](Cc2c[nH]c3ccccc23)C(=O)N[C@@H](CC(=O)O)C(N)=O)NC(=O)[C@H]([C@@H](C)CC)NC(=O)[C@H](Cc2c[nH]cn2)NC(=O)[C@H](C)NC(=O)[C@H](C)NC(=O)[C@H](CC(C)C)NC1=O [Compound 9] (H-ADPADEDCILAAHICQWD-NH2; linker 8-15 via Phenylene(1,4-NHCOCH2)2; N-terminus and C-terminus assumed) | 1.67
CC(C)C[C@@H]1NC(=O)[C@H](C)NC(=O)[C@H](C)NC(=O)[C@H](Cc2c[nH]c3ccccc23)NC(=O)[C@H](CCC(=O)O)NC(=O)[C@@H](NC(=O)[C@H](CCCNC(=N)N)NC(=O)[C@H](Cc2c[nH]cn2)NC(=O)[C@@H](NC(=O)[C@H](C)NC(=O)[C@@H]2CCCN2C(=O)[C@H](CC(=O)O)NC(=O)[C@H](C)N)[C@@H](C)O)CSCC(=O)O[C@@H]2C=C[C@@H](C2)OC(=O)CSC[C@@H](C(=O)N[C@@H](CCC(=O)O)C(=O)N[C@@H](CC(C)C)C(=O)N[C@H](C(N)=O)C(C)C)NC(=O)[C@H](Cc2c[nH]cn2)NC1=O [Compound 39] | 1.27
CC[C@H](C)[C@@H]1NC(=O)[C@H](CC(C)C)NC(=O)[C@H](C)NC(=O)[C@H](C)NC(=O)[C@H](Cc2c[nH]cn2)NC(=O)[C@H](CCC(=O)O)NC(=O)[C@@H](NC(=O)[C@H](CCC(=O)O)NC(=O)[C@H](Cc2c[nH]c3ccccc23)NC(=O)[C@H](CC(=O)O)NC(=O)[C@H](C)NC(=O)[C@@H]2CCCN2C(=O)[C@H](CC(=O)O)NC(=O)[C@H](C)N)CSCC(=O)Nc2ccc(cc2)NC(=O)CSC[C@@H](C(=O)N[C@@H](CC(=O)O)C(=O)N[C@@H](C)C(=O)N[C@@H](CCSC)C(N)=O)NC1=O [Compound 12] (H-ADPADWECEHAALICDAM-NH2; linker 8-15 via Phenylene(1,4-NHCOCH2)2; N-terminus and C-terminus assumed) | 1.66
CC[C@H](C)[C@@H]1NC(=O)[C@H](CC(C)C)NC(=O)[C@H](C)NC(=O)[C@H](C)NC(=O)[C@H](Cc2c[nH]cn2)NC(=O)[C@H](CCC(=O)O)NC(=O)[C@@H](NC(=O)[C@H](C)NC(=O)[C@H](Cc2c[nH]c3ccccc23)NC(=O)[C@H](CC(C)C)NC(=O)[C@H](C)NC(=O)[C@@H]2CCCN2C(=O)[C@H](CC(=O)O)NC(=O)[C@H](C)N)CSCC(=O)O[C@@H]2C=C[C@@H](C2)OC(=O)CSC[C@@H](C(=O)N[C@@H](CCC(=O)O)C(=O)N[C@H](C(=O)N[C@@H](CCC(N)=O)C(N)=O)[C@@H](C)O)NC1=O [Compound 48] (H-ADPALWACEHAALICETQ-NH2; linker 8-15 via X1; N-terminus and C-terminus assumed) | 1.22
CC[C@H](C)[C@H](NC(=O)[C@H](CCC(=O)O)NC(=O)[C@@H]1CSCC(=O)Nc2ccc(cc2)NC(=O)CSC[C@H](NC(=O)[C@@H]2CCCN2C(=O)[C@H](Cc2c[nH]c3ccccc23)NC(=O)[C@H](CCC(N)=O)NC(=O)[C@H](C)NC(=O)[C@@H]2CCCN2C(=O)[C@H](CC(=O)O)NC(=O)[C@H](C)N)C(=O)N[C@@H](CCC(=O)O)C(=O)N[C@@H](Cc2c[nH]cn2)C(=O)N[C@@H](C)C(=O)N[C@@H](C)C(=O)N[C@@H](CC(C)C)C(=O)N[C@@H](CC(C)C)C(=O)N1)C(=O)N[C@@H](CCC(=O)O)C(N)=O [Compound 14] (H-ADPAQWPCEHAALLCEIE-NH2; linker 8-15 via Phenylene(1,4-NHCOCH2)2; N-terminus and C-terminus assumed) | 1.59
CC(C)C[C@@H]1NC(=O)[C@H](C)NC(=O)[C@H](C)NC(=O)[C@H](Cc2c[nH]c3ccccc23)NC(=O)[C@H](CCC(=O)O)NC(=O)[C@@H](NC(=O)[C@H](CCCNC(=N)N)NC(=O)[C@H](Cc2c[nH]cn2)NC(=O)[C@@H](NC(=O)[C@H](C)NC(=O)[C@@H]2CCCN2C(=O)[C@H](CC(=O)O)NC(=O)[C@H](C)N)[C@@H](C)O)CSCC(=O)N(C)c2ccc(cc2)N(C)C(=O)CSC[C@@H](C(=O)N[C@@H](CCC(=O)O)C(=O)N[C@@H](CC(C)C)C(=O)N[C@H](C(N)=O)C(C)C)NC(=O)[C@H](Cc2c[nH]cn2)NC1=O [Compound 31] | 1.19

Second part, the molecule after the results:

LogK | Molecule
1.98 | CC[C@H](C)[C@@H]1NC(=O)[C@H](CC(C)C)NC(=O)[C@H](C)NC(=O)[C@H](C)NC(=O)[C@H](Cc2c[nH]cn2)NC(=O)[C@H](CCC(=O)O)NC(=O)[C@@H](NC(=O)[C@H](Cc2c[nH]cn2)NC(=O)[C@H](Cc2c[nH]c3ccccc23)NC(=O)[C@H](CCC(N)=O)NC(=O)[C@H](C)NC(=O)[C@@H]2CCCN2C(=O)[C@H](CC(=O)O)NC(=O)[C@H](C)N)CSCC(=O)Nc2ccc(cc2)NC(=O)CSC[C@@H](C(=O)N[C@@H](CCC(=O)O)C(=O)N[C@@H](CC(C)C)C(=O)N[C@@H](CC(=O)O)C(N)=O)NC1=O [Compound 10] (H-ADPAQWHCEHAALICELD-NH2; linker 8-15 via Phenylene(1,4-NHCOCH2)2; N-terminus and C-terminus assumed)
1.31 | CC[C@H](C)[C@@H]1NC(=O)[C@H](CC(C)C)NC(=O)[C@H](C)NC(=O)[C@H](C)NC(=O)[C@H](Cc2c[nH]cn2)NC(=O)[C@H](CCC(=O)O)NC(=O)[C@@H](NC(=O)[C@H](C)NC(=O)[C@H](Cc2c[nH]c3ccccc23)NC(=O)[C@H](CC(C)C)NC(=O)[C@H](C)NC(=O)[C@@H]2CCCN2C(=O)[C@H](CC(=O)O)NC(=O)[C@H](C)N)CSCC(=O)O[C@H]2CC[C@H](CC2)OC(=O)CSC[C@@H](C(=O)N[C@@H](CCC(=O)O)C(=O)N[C@H](C(=O)N[C@@H](CCC(N)=O)C(N)=O)[C@@H](C)O)NC1=O [Compound 45] (H-ADPALWACEHAALICETQ-NH2; linker 8-15 via X4; N-terminus and C-terminus assumed)
1.67 | GPAKPEAPGEDASPDELIHYYNSLDEYLYEVA-NH2 (C-terminus assumed) [Compound 16]
1.75 | CC[C@H](C)[C@@H]1NC(=O)[C@H](CC(C)C)NC(=O)[C@H](C)NC(=O)[C@H](C)NC(=O)[C@H](Cc2c[nH]cn2)NC(=O)[C@H](CCC(=O)O)NC(=O)[C@@H](NC(=O)[C@H](CC(C)C)NC(=O)[C@H](Cc2c[nH]c3ccccc23)NC(=O)[C@H](Cc2ccc(O)cc2)NC(=O)[C@H](C)NC(=O)[C@@H]2CCCN2C(=O)[C@H](CC(=O)O)NC(=O)[C@H](C)N)CSCC(=O)Nc2ccc(cc2)NC(=O)CSC[C@@H](C(=O)N[C@@H](CCC(=O)O)C(=O)N[C@H](C(=O)N[C@@H](CCC(=O)O)C(N)=O)C(C)C)NC1=O [Compound 13] (H-ADPAYWLCEHAALICEVE-NH2; linker 8-15 via Phenylene(1,4-NHCOCH2)2; N-terminus and C-terminus assumed)

— patent US12398178B2, “Collections of peptides, peptide agents, and methods of use thereof” (Parabilis Medicines, Inc., priority 2018, dated 2025)
